Measurements taken from article PMC4336329 (PLoS ONE, 2015).
Screen size: about 310,000 compounds; about 2,200 (0.71%) showed an effect of 50% or more. Effects have a minus sign here. The list shows a part of the results.

The compounds below were run against human ether-à-go-go-related gene (hERG) potassium channel (human, UniProt Q12809) (assay: primary screen, population patch clamp on CHO cells stably expressing hERG).
Chain of human ether-à-go-go-related gene (hERG) potassium channel (Q12809 whole entry, looked up): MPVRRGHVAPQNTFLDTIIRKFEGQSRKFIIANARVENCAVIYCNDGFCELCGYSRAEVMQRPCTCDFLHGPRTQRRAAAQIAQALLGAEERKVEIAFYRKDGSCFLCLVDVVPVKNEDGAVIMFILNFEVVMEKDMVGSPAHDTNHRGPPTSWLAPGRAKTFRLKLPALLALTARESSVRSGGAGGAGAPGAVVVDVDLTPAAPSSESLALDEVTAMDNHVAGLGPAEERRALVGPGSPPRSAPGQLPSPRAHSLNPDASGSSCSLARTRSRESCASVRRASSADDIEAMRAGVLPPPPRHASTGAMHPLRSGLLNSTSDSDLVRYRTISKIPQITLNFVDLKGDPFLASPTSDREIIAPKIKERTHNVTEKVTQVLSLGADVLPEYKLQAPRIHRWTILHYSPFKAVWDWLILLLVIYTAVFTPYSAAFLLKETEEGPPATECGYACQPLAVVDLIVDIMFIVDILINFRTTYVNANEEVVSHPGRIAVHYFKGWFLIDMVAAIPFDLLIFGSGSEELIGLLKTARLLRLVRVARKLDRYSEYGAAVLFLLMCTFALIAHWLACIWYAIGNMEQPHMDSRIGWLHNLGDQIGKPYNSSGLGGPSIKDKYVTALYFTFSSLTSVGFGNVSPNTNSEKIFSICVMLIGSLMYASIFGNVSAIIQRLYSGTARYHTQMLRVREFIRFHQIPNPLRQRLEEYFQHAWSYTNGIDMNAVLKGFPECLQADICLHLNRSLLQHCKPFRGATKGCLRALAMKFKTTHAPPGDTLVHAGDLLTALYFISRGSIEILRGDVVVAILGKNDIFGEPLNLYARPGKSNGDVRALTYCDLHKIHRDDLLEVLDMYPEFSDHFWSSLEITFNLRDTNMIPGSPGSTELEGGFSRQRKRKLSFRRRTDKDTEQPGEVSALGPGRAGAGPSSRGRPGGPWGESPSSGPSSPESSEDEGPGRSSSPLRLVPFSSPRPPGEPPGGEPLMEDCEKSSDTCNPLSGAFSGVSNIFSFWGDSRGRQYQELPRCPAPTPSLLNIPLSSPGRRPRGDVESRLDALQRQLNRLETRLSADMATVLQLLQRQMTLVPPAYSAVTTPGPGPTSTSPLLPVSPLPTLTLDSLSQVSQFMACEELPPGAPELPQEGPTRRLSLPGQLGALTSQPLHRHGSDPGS

Structure (SMILES) | hERG current change (%, negative = inhibition) at 1uM [%]
CCc1nc2ccc(Cc3ccc4nc(CC)[nH]c4c3)cc2[nH]1 | 17.7
COc1cccc(C(=O)Nc2nnc(S(=O)(=O)N3CCOCC3)s2)c1 | -2.84
CC(C)NCC(O)COc1c(F)cc(Br)cc1F.Cl (centres unmarked) | 4.26
Cc1ccc(Cn2c(SCC(=O)Nc3cc(C)on3)nc3ccccc3c2=O)cc1 | 10.7
Cc1cc(C)cc(N2C(=O)C3CCCN3C2=S)c1 (centres unmarked) | 17.7
Cc1ccc(-c2nc(-c3cccnc3)no2)cc1 | 2.83
CCCC(=O)Nc1ccc(Cl)c(NC(=O)c2cccnc2)c1 | 18.3
CCc1ccc(OCC(=O)NCCOc2ccccc2)cc1 | 3
Cc1cc(SCC(=O)NC(=O)NCc2ccco2)nc2c(C)cccc12 | -1.05
Cc1cc(C(=O)N2CCCC2C(=O)O)c(C)o1 (centres unmarked) | 5.23
COc1cc(C2SCC(=O)N2c2nnc(C34CC5CC(CC(C5)C3)C4)s2)cc(OC)c1OC (centres unmarked) | 2.93
Cn1c(=O)c2c(ncn2CC(=O)NC2CCCCC2)n(C)c1=O | 8.25
CC(C)(C)c1ccc(Oc2ccc(NC(=O)c3ccco3)cn2)cc1 | 5.19
CC(=O)Nc1ccccc1NS(=O)(=O)c1ccccc1[N+](=O)[O-] | 8.77
Cc1cc(C)c(S(=O)(=O)NC2CC(C)(C)NC(C)(C)C2)cc1C | 2.32
Cc1cc(C(=O)NCCc2ccc(S(N)(=O)=O)cc2)no1 | 14.7
Cc1ccc(-c2csc(NC(=O)Cc3cccs3)n2)cc1C | 9.09
Cc1cccc(Nc2nc(-c3ccccn3)cs2)n1 | 18
Cc1ccc(-c2csc(NC(=O)/C=C/c3ccco3)c2C(=O)O)cc1 | 15.7
CC(C)(C)n1nnnc1C(c1cccc(C#N)c1)N1CCCc2ccccc21 (centres unmarked) | 11.9
Clc1ccc(C2NCCc3[nH]cnc32)cc1 (centres unmarked) | 13.6
COc1ccc(NC(=O)CC(C)C)c([N+](=O)[O-])c1 | 1.74
Cc1ccc(-c2nnn(CC(=O)N(c3cccc(F)c3)C(C(=O)NC3CCCC3)c3ccncc3)n2)o1 (centres unmarked) | 15.5
CCCNC(=O)N[C@@H](CCSC)C(=O)OC | 11.3
O=C(Nc1ccc(Oc2ccc(NC(=O)Nc3ccccc3Cl)cc2)cc1)Nc1ccccc1Cl | 14.8
COC(=O)C1=C(c2ccc(F)cc2OCc2ccccc2)C[C@@H]2CC[C@H]1N2C(=O)NCc1ccc(F)cc1 | 13.2
